These results are taken from ChEMBL document CHEMBL4888484, “Replenishing the malaria drug discovery pipeline: Screening and hit evaluation of the MMV Hit Generation Library 1 (HGL1) against asexual blood stage Plasmodium falciparum ,using a nano luciferase reporter read-out” (2022).

About 540 (0.36%) of roughly 150,000 compounds showed an effect of 50% or more. This is one part of the list.

The term % Inhibition denotes the change of the read-out against control, counted positive when it falls.

For the assay, the system named is Plasmodium falciparum. The experiment in a line: Primary screen in NF54 nanoGlo assay, in single point, at 2uM, 72h; a lower Z score goes with more inhibition. The note with it: timepoint 72 hour. In kind it is functional, Erythrocyte.
Turning to `O=C(NC[C@H]1Cn2ccnc2CO1)NC1CCCCC1`, the “% Inhibition” value is on record as -18% and the Z score turned out to be 2.65.

For the molecule `O=C([C@@H]1CCCCN1C(=O)COc1ccc(Cl)cc1Br)N1CCCC1`, the “% Inhibition” value is -7% and the Z score turned out to be 0.71.

Turning to `Cc1noc([C@H](C)ONC(=O)C2CCCC2)n1`, the “% Inhibition” value is -5% and the Z score is on record as 0.64.

Regarding `COc1ccc(CC(=O)Nc2nc(-c3ccc(OC)c(OC)c3)ns2)cc1`, the “% Inhibition” value is reported as -14% and the Z score turned out to be 2.6.

In the case of `CC1CN(C(=O)c2nccn3ccnc23)C1`, the “% Inhibition” value is on record as -7% and the Z score is 0.91.

In the case of `CN(CC(=O)NCc1cccs1)C(=O)CNC(=O)OCc1ccccc1`, the “% Inhibition” value is listed as -4% and the Z score was 0.52.

`COc1ccccc1C(C)(C)c1noc([C@@]2(C)CCNC(=O)C2)n1`: the “% Inhibition” value is -3% and the Z score came out at 0.4.

`CCC(=O)Nc1cc(NC(=O)N(C)Cc2cnc(NC)nc2)ccc1OC`: the “% Inhibition” value is on record as -13% and the Z score is reported as 1.81.

`CCc1noc(CN(CC)CCn2c(=O)cc(C)[nH]c2=O)n1`: the “% Inhibition” value is -12% and the Z score was determined as 1.11.

For the molecule `O=C1CC(c2ccccn2)=NN1C1CCC(F)(F)CC1`, the “% Inhibition” value is listed as -9% and the Z score stood at 1.19.

Consider `Cc1ccc(-c2nc(-c3ccc(S(=O)(=O)N4CCC(C)CC4)cc3)no2)cc1F`, for which the “% Inhibition” value is -5% and the Z score was 0.82.

As to `CC[C@H](NC(=O)CCc1cnn(C)c1)c1ncnn1C`, the “% Inhibition” value is listed as -10% and the Z score worked out at 2.08.

As for `CCN1C(=O)N(CC)C(OC(C)=O)C1OC(C)=O` (stereo unspecified), the “% Inhibition” value is given as -7% and the Z score is 0.82.

Regarding `CCCc1cc(-c2ccc(N(C)C)nc2)nc(C)n1`, the “% Inhibition” value is listed as -26% and the Z score stood at 3.27.

As to `Cn1cc(C(=O)N[C@H]2CCCc3ccccc32)cn1`, the “% Inhibition” value is given as -4% and the Z score worked out at 0.47.

Take `N#Cc1cccc(CN2C[C@@H]3CC[C@H]2CN(Cc2ccccn2)C3)c1`: the “% Inhibition” value is listed as -12% and the Z score is 1.27.

For the molecule `Cc1n[nH]c(=O)nc1NCc1ccc(F)cc1`, the “% Inhibition” value is 4% and the Z score was -0.48.

Turning to `CN(C)S(=O)(=O)N1CCOC[C@H]1c1nc(-c2ccccc2)no1`, the “% Inhibition” value came out at 10% and the Z score was -1.28.

For `COc1ccc([C@H]2OCC[C@@H]2NC(=O)Nc2nc(C)no2)cn1`, the “% Inhibition” value was -9% and the Z score came to 1.2.

On to `CCCCN1CCN(C(=O)CN2CCN(Cc3ccc(F)cc3Cl)C2=O)CC1`, for which the “% Inhibition” value is 37% and the Z score is -4.94.

In the case of `c1ccc(Cc2nc(Cn3ccnc3-c3ccnc4ccccc34)no2)cc1`, the “% Inhibition” value is recorded as -7% and the Z score is 0.97.

As for `COc1cccc(N2CCN(C(=O)[C@H]3CCCN(c4cnn(C)c(=O)c4)C3)CC2)c1`, the “% Inhibition” value came out at 7% and the Z score was -1.25.

Consider `Cc1sc(NC(=O)N[C@@H]2CCCNC2)nc1C(C)C`, for which the “% Inhibition” value was -3% and the Z score is reported as 0.6.

For `CCn1cc(CNCc2ccc(OC34CCCN(CC3)C4)cc2)cn1` (stereo unspecified), the “% Inhibition” value is -14% and the Z score is 2.6.

As for `C[C@H](NC(=O)c1ccncc1)c1cc2ccccc2o1`, the “% Inhibition” value was -8% and the Z score came to 1.31.

Consider `Cc1ccc(C(=O)N2CCC(N3C(=O)N(Cc4cccnc4)C[C@]34CCOC4)CC2)s1`, for which the “% Inhibition” value is reported as -9% and the Z score was 1.45.

With `CN(CCC(=O)Nc1ccccc1Cl)CCC1(O)CCCC1`, the “% Inhibition” value was -5% and the Z score amounted to 0.86.

Consider `CC[C@](C)(NC(=O)CN1C(=O)c2ccccc2C1=O)C(=O)Nc1c(C)cccc1C`, for which the “% Inhibition” value amounted to 2% and the Z score is on record as -0.35.

For the molecule `O=C(OCc1nc2ccccc2[nH]1)c1cccc(N2CCCC2=O)c1`, the “% Inhibition” value is 4% and the Z score was -0.58.

For `O=C(NCc1ccc(F)cc1)c1ccc2c(=O)n(-c3ccccc3)c(N3CCCC3)nc2c1`, the “% Inhibition” value was 6% and the Z score is reported as -1.11.

Consider `COc1cnc(N2CCOC(c3ccccc3)C2)nc1N1CCOC(c2ccccc2)C1` (stereo unspecified), for which the “% Inhibition” value is -1% and the Z score is reported as 0.14.

Regarding `CC1CC1CNC(=O)NCCc1nnc2ccccn12` (stereo unspecified), the “% Inhibition” value is -6% and the Z score turned out to be 1.

Take `CC(=O)N1CC(C(=O)Nc2ccc(Cl)cc2)C1`: the “% Inhibition” value stood at 2% and the Z score is -0.27.

For the molecule `O=C(C1CCCC1)N1CCN2C(=O)NC[C@H]2C1`, the “% Inhibition” value is reported as 2% and the Z score was -0.25.

On to `CCN(C[C@H]1CCCO1)C(=O)c1cc(COc2ccc3sc(C)nc3c2)on1`, for which the “% Inhibition” value was -7% and the Z score was determined as 1.18.

Turning to `COc1c(Cl)cc(Cl)cc1[C@H](c1nnnn1C(c1ccccc1)c1ccccc1)N1CCCCC1`, the “% Inhibition” value was -33% and the Z score was 3.9.

Consider `O=S(=O)(C1CCCCC1)N1CCN(c2ccc(C3CC3)nn2)CC1`, for which the “% Inhibition” value is recorded as -2% and the Z score worked out at 0.41.

For the molecule `O=C(Nc1ccccc1)N1CCC(N2C[C@H](OCC3CC3)C23CCOCC3)CC1`, the “% Inhibition” value is reported as -3% and the Z score stood at 0.65.

On to `Cc1cccc(C[C@H](C)Nc2nnc(C(C)C)s2)n1`, for which the “% Inhibition” value was -18% and the Z score is 3.25.

For the molecule `CS(=O)(=O)N1C[C@H]2CCN(C(=O)CCc3c[nH]c4ccccc34)C[C@@]2(CO)C1`, the “% Inhibition” value came to 4% and the Z score is reported as -0.53.

Regarding `O=C(Nc1cnc2ccccc2c1O)NC1CCCC1`, the “% Inhibition” value is reported as -7% and the Z score is reported as 1.3.

Regarding `CCCCOc1c(Br)cc(CNC)cc1OCC`, the “% Inhibition” value is listed as 5% and the Z score is -0.78.

Consider `CCNc1nc(C)cc(NCCNC(=O)c2snnc2C)n1`, for which the “% Inhibition” value was -3% and the Z score was found to be 0.42.
